Reference: PubChem BioAssay AID686978 (National Center for Advancing Translational Sciences (NCATS), 2013)
Several values for one entry are separate records, joined by “and”; a condition that tells them apart may be missing. Equal values may be shown once. Among all 420,000 compounds or so, about 64,000 (15%) were called active. Inconclusive means that the source gave no clear call. Such entries were picked first, then a sample of the others. The call rests on the fitted dose curve; in most records, active means well fitted inhibition curve with a large enough effect; inconclusive means small, poorly fitted or top-dose-only effect; inactive means flat fitted curve, though single readings scatter. Potencies of inconclusive entries are doubtful fits and often do not repeat.

Assay: qHTS for Inhibitors of human tyrosyl-DNA phosphodiesterase 1 (TDP1): qHTS in cells in absence of CPT; further: nearly all actives have a fitted effect of over 55% in size
Conditions: DT40 Tdp1-/- hTDP1 cells, no CPT, ATP luminescence, 48 h; activity change, negative = growth inhibition: at 46.2 µM (top of the series) unless noted
In short: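 DT40 Tdp1-/-;hTDP1 cells, no CPT (DMSO vehicle only), 400 cells/well; compounds pin-transferred; ≥48 hr, 37 °C; CellTiter-Glo 30 min RT dark, luminescence read.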
On the % scale 0 is the no-effect control and ±100 the full control effect; potency means the concentration at half of the fitted maximal effect; tags describe the fitted curve by direction and shape.

SMILES	Potency	activity change, negative = growth inhibition
CCn1c(CN2CCCCC2)nc2cc(NC(=O)c3cc(OC)c(OC)c(OC)c3)ccc21	inconclusive: 29.1 µM [inhibitor, single point]	–
CN(C(=O)CN1CCN(c2cc(-c3cccc4oc5ccccc5c34)ncn2)CC1)c1ccccc1	inconclusive: 25.9 µM [inhibitor, single point]	–
O=C1c2ccccc2C(O)N1CCN1CCOCC1 (centres undefined)	–	inactive: 29.1%
CC(OC(=O)[C@H](C)NC(=O)c1ccccc1Cl)C(=O)NCc1ccc2c(c1)OCO2 (some centres undefined)	–	inactive: -0.287%
CCn1ncc(Br)c1C(=O)Nc1sc2c(c1C(=O)OC)CCC2	–	inconclusive: -30.8% [inhibitor]
Cc1ccc(C(=S)N2CCN(Cc3ccccc3)CC2)s1	inconclusive: 20.6 µM [inhibitor, single point]	–
CC(=O)Nc1nc(C)c(-c2csc(Nc3cccc(C(C)=O)c3)n2)s1	active: 5.17 µM	–
CN(Cc1ccccc1)C(=O)c1nc(-c2ccc(Cl)cc2)n2c1CCCCC2	inconclusive: 8.2 µM [inhibitor, partial curve]	–
CC1CN(S(=O)(=O)c2ccc(Cl)c(C(F)(F)F)c2)CC(C)O1 (centres undefined)	inconclusive: 5.8 µM [inhibitor, partial curve, poor fit]	–
COc1ccc(Nc2c3c(nc4ccc(NC(=O)c5ccc(F)cc5)cc24)CCCC3)cc1OC	inconclusive: 23.1 µM [inhibitor, single point]	–
CN(C(=O)c1ccccc1Cl)c1ccccc1C(=O)NCCc1ccccc1	inconclusive: 18.4 µM [inhibitor, single point]	–
CC1(C(=O)Nc2cccc3ccccc23)CC1(Br)Br (centres undefined)	inconclusive: 20.6 µM [inhibitor, single point]	–
CC(=O)N[C@@H](Cc1c[nH]c2ccccc12)C(=O)OCC(=O)Nc1ccc2c(c1)OCO2	inconclusive: 29.1 µM [inhibitor, single point]	–
Fc1ccc(CSc2nc3ccccc3[nH]2)c2ccccc12	active: 20.6 µM	–
COc1ccc(-n2c(-c3ccc(Br)cc3)c[n+]3c2SC(C)C3)cc1 (centres undefined)	active: 1.16 µM	–
CC(C)Cn1c(N)c(C(=O)COC(=O)[C@@H]2CCCN2C(=O)c2cccs2)c(=O)n(C)c1=O	inconclusive: 11.6 µM [inhibitor, partial curve, poor fit]	–
COc1ccc(/C=N/NC(=O)c2nc(Cl)c(Cl)c(N)c2Cl)cc1COc1ccc(F)cc1F	inconclusive: 29.1 µM [inhibitor, single point]	–
CCc1ccc(Nc2ccc3nonc3c2[N+](=O)[O-])cc1	inconclusive: 18.4 µM [inhibitor, single point]	–
C/C(=C/c1ccccc1)C(=O)N1CCN(c2ccc(F)cc2)CC1	–	inconclusive: -30.9% [inhibitor]
Cc1nonc1NC(=O)CSc1nc(C23CC4CC(CC(C4)C2)C3)nc2ccccc12	inconclusive: 29.1 µM [inhibitor, partial curve, poor fit]	–
Cc1ccc(S(=O)(=O)NNC(=O)C2Cc3c(ccc4ccccc34)O2)cc1 (centres undefined)	active: 23.1 µM	–
Clc1ccc(CO/N=C/c2c(-c3ccccc3)nc3n2CCS3)c(Cl)c1	inconclusive: 11.6 µM [inhibitor, partial curve]	–
CCCCCCCCc1nc(SCC(C)=O)n[nH]1	–	inactive: -23.1%

SMILES	Potency	activity change, negative = growth inhibition
COC(=O)c1ccc(C2Nc3ccc(/C(C)=N/NC(=O)C(OC)c4ccccc4)cc3C3C=CCC32)cc1 (centres undefined)	active: 14.6 µM	–
COc1ccc(NC(=O)N2CCCCC2c2cccnc2)cc1 (centres undefined)	–	inactive: -7.64%
Cc1cc(/C=C2/NC(=O)N(c3ccccc3)C2=O)c(C)n1-c1cccnc1	inconclusive: 29.1 µM [inhibitor, single point]	–
COc1ccc(CC(=O)Nc2ccc(N(C)C)c3ccccc23)cc1	inconclusive: 25.9 µM [inhibitor, single point]	–
CC12CCC(=O)N1C(C(=O)NCCN1C(=O)S/C(=C\c3ccc(F)cc3)C1=O)CS2 (centres undefined)	inconclusive: 20.6 µM [inhibitor, single point]	–
Cc1cccc(OCCNC(=O)CSc2ccc(C(F)(F)F)cc2[N+](=O)[O-])c1	active: 16.4 µM	–
Cc1cccc(NC(=O)Nc2cccc3ccccc23)c1	–	inactive: 2.39%
COC(=O)C1=C(C)N(C)C(=O)NC1c1ccc(O)c(OC)c1 (centres undefined)	–	inactive: 0.0039%
CN(C)CCN(Cc1cccs1)S(=O)(=O)c1csc(C(N)=O)c1	–	inactive: 17.3%
COc1ccc(C(=O)NCCc2c[nH]c3ccccc23)cc1S(=O)(=O)N1CCOCC1	–	inconclusive: -34.1% [inhibitor]
CC(CN1c2ccccc2Sc2ccccc21)N(C)C (centres undefined)	inconclusive: 35.5 µM [inhibitor, single point] and inconclusive: 16.4 µM [inhibitor, partial curve]	–
CC(Oc1ccc2c(-c3ccccc3)cc(=O)oc2c1)C(=O)N1CCC[C@@H]1C(N)=O (some centres undefined)	–	inactive: -3.14%
O=C(NCCOc1ccccc1Cl)c1cccc2c1C(=O)c1ccc(Cl)cc1S2(=O)=O	active: 16.4 µM	–
CCCn1c(C2CC(=O)N(c3ccc(C)cc3)C2)nc2ccccc21 (centres undefined)	–	inactive: 0.139%
O=C(NCCc1ccccc1)C(=O)c1c(-c2ccccc2)[nH]c2ccccc12	inconclusive: 29.1 µM [inhibitor, single point]	–
COc1ccc(CNC(=O)C[C@H]2C(=O)N(C3CCCCC3)C[C@@H]2Cc2ccccc2)cc1	–	inactive: -25%
O=S1(=O)CCOC[C@H](c2ccccc2)N1Cc1ccc(F)cc1	active: 11.2 µM	–
CNC1(c2nnnn2-c2c(C)cccc2C)CCOC(C)(C)C1 (centres undefined)	–	inactive: 15.9%
COc1ccc(-c2cc3ccc(O)c(CN4CCC(C)CC4)c3oc2=O)cc1OC	inconclusive: 23.1 µM [inhibitor, single point]	–
Cc1cccc(Cn2cccc2CNS(=O)(=O)c2ccc(Br)cc2)c1	inconclusive: 25.9 µM [inhibitor, single point]	–
CCOC(=O)C1=C(C)NC(C)=C(C(=O)OCC)C1C(=O)OCC(=O)N(C)C1CCS(=O)(=O)C1 (centres undefined)	–	inactive: -0.377%
CCCCNC(=O)Cn1c(SCc2cccc(Cl)c2)nc2ccncc21	inconclusive: 22.4 µM [inhibitor, partial curve]	–
COc1ccc(Nc2cc3n(c(=O)n2)CCc2cc(OC)c(OC)cc2-3)c(C)c1	active: 14.6 µM	–

SMILES	Potency	activity change, negative = growth inhibition
Cc1ccccc1CN1C(=O)c2ccccc2S(=O)(=O)c2ccc(C(=O)OCC3CCCO3)cc21 (centres undefined)	–	inactive: -20.3%
COc1ccc(OC)c(S(=O)(=O)N2CCCC(C(=O)NC3CC3)C2)c1 (centres undefined)	inconclusive: 23.1 µM [inhibitor, single point]	–
COc1ccc(C(=O)O/N=C(\N)c2ccc(Cl)cc2)cc1	–	inactive: 22.7%
O=C(c1cc2nc(-c3ccco3)cc(C(F)(F)F)n2n1)N1CCN(c2ccc(F)cc2)CC1	inconclusive: 16.4 µM [inhibitor, single point]	–
O=c1c2cc(Br)ccc2nc(-c2cccc(Cl)c2)n1O	active: 23.1 µM	–
Cc1ccsc1/C=N/NC(=O)CNC(=O)c1ccc(S(=O)(=O)N(C)C)cc1	–	inactive: -23.9%
CC(=O)c1sc(NC(=O)CSCc2c(C)noc2C)nc1-c1ccccc1	inconclusive: 29.1 µM [inhibitor, single point]	–
CC1(C)CC(=O)C2=C(C1)NC(SCC(=O)Nc1ccccc1)=C(C#N)C2c1ccco1 (centres undefined)	inconclusive: 16.4 µM [inhibitor, single point]	–
Cc1cc(=O)oc2c3c(cc(OCC(=O)NC(C)C)c12)OC(C)(C)CC3	–	inactive: -27.2%
CCOC(=O)N1CCN(S(=O)(=O)c2ccc(OC)c3ccccc23)CC1	inconclusive: 20.6 µM [inhibitor, single point]	–
CC(=O)NC1CCCc2c1cnn2-c1ccc(C(C)(C)C)cc1 (centres undefined)	inconclusive: 23.1 µM [inhibitor, partial curve]	–
COC(=O)[C@H](Cc1ccccc1)NC(=O)NCc1ccc(S(N)(=O)=O)cc1	inconclusive: 20.6 µM [inhibitor, single point]	–
COc1ccc(OC)c(NC(=O)CN(c2ccc(C)cc2)S(=O)(=O)c2c(C)noc2C)c1	inconclusive: 16.4 µM [inhibitor, single point]	–
c1ccc(-c2nn3c(-c4ccco4)nnc3s2)nc1	inconclusive: 8.2 µM [inhibitor, partial curve]	–
COc1ccc(C(C(=O)NC2CCCC2)n2c(-c3cccs3)nc3ccccc32)cc1 (centres undefined)	inconclusive: 25.9 µM [inhibitor, single point]	–
CCOc1ccc(S(=O)(=O)NNC(=O)c2cc3ccccc3o2)cc1	inconclusive: 20.6 µM [inhibitor, partial curve]	–
CN1CCN(c2ccc(NC(=S)NC(=O)/C=C/c3ccco3)cc2)CC1	active: 20.6 µM	–
C=CCN=C1N[C@@H](c2ccc(Br)cc2)C(C(=O)OC)=C(C)N1Cc1ccccc1	inconclusive: 20 µM [inhibitor, single point]	–
COc1ccc(C(=O)Nc2ccc(Cl)cc2C(=O)NCCO)cc1	–	inactive: -13.4%
CSc1ccc(OCC(=O)Nc2ccc(N3CCOCC3)c(Cl)c2)cc1	inconclusive: 10.3 µM [inhibitor, partial curve]	–
CC(NC(=O)CN1C(=O)c2cccnc2Oc2ccc(Cl)cc21)c1ccccc1 (centres undefined)	inconclusive: 14.6 µM [inhibitor, single point]	–
CC(=O)N1[C@H](C)C=C[C@]1(Cc1ccccc1)C(=O)NCCc1c[nH]c2ccccc12	inconclusive: 29.1 µM [inhibitor, single point]	–
O=C(O)COc1ccc(Br)cc1/C=N\Nc1ccccn1	inconclusive: 29.1 µM [inhibitor, single point]	–
